Laboratory results as given in the supplement of paper PMC12217912.
Some of the results follow. The full chains were built here from the parent and the listed change. Inactive controls read about 0.05.

B1: TEV protease; numbered along this chain (parent)
chain: MGESLFKGPRDYNPISSSICHLTNESDGHTTSLYGIGFGPFIITNKHLFRRNNGTLVVQSLHGVFKVKDTTTLQQHLVDGRDMIIIRMPKDFPPFPQKLKFREPQREERICLVTTNFQTKSMSSMVSDTSCTFPSGDGIFWKHWIQTKDGQCGSPLVSTRDGFIVGIHSASNFTNTNNYFTSVPKNFMELLTNQEAQQWVSGWRLNADSVLWGGHKVFMVKPEEPFQPVKEATQL

Variants of: B1
Assay: raw area under fraction-flipped curve 0-4 h after induction (AUC4h, not background-subtracted), DNA-recorder readout of cleavage of the substrate (dimensionless); higher = more cleavage of the substrate by the protease variant
Details: temperature: 34 °C; time window: 0-4 h after rhamnose induction
Protocol: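 In vivo DNA recorder in E. coli TOP10(DE3) ΔrhaA at 34 °C. Each TEVp single-site mutant (parent TEVp 0) is paired with a single-site variant of the 7-mer TEVs (canonical ENLYFQ|S). The substrate sits between flexible linkers in a Bxb1-sfGFP-TEVs-SsrA fusion, so cleavage stabilises Bxb1 and speeds flipping of a recombination array, read by NGS. The value is the raw area under the fraction-flipped curve over 0-4 h after rhamnose induction (AUC4h), with ≥20 reads per time point. It is not background-subtracted; inactive controls average about 0.047.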
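Further: Bxb1 expression induced with 0.2% (w/v) L-rhamnose at OD600 near 0.5, cultures sampled hourly, flipped fraction per protease–substrate barcode pair counted by paired-end Illumina sequencing.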

| Variant | area with substrate EALYFQS | area with substrate ECLYFQS | area with substrate EDLYFQS | area with substrate EGLYFQS | area with substrate EILYFQS | area with substrate ELLYFQS | area with substrate EMLYFQS | area with substrate EPLYFQS | area with substrate EQLYFQS | area with substrate ERLYFQS | area with substrate ESLYFQS | area with substrate EVLYFQS | area with substrate EWLYFQS | area with substrate EYLYFQS | area with substrate EELYFQS | area with substrate EHLYFQS | area with substrate EKLYFQS | area with substrate EFLYFQS | area with substrate ETLYFQS |
| --- | --- | --- | --- | --- | --- | --- | --- | --- | --- | --- | --- | --- | --- | --- | --- | --- | --- | --- | --- |
| MGESLFKGPRDYNPISSSICHLTNESDAHTTSLYGIGFGPFIITNKHLFRRNNGTLVVQSLHGVFKVKDTTTLQQHLVDGRDMIIIRMPKDFPPFPQKLKFREPQREERICLVTTNFQTKSMSSMVSDTSCTFPSGDGIFWKHWIQTKDGQCGSPLVSTRDGFIVGIHSASNFTNTNNYFTSVPKNFMELLTNQEAQQWVSGWRLNADSVLWGGHKVFMVKPEEPFQPVKEATQL [G28A] | 0.14 | 0.0989 | 0.172 | 0.0992 | 0.086 | 0.0864 | 0.116 | 0.126 | 0.112 | 0.0796 | 0.0944 | 0.0896 | 0.0771 | 0.0999 | – | – | – | – | – |
| MGESLFKGPRDYNPISSIICHLTNESDGHTTSLYGIGFGPFIITNKHLFRRNNGTLVVQSLHGVFKVKDTTTLQQHLVDGRDMIIIRMPKDFPPFPQKLKFREPQREERICLVTTNFQTKSMSSMVSDTSCTFPSGDGIFWKHWIQTKDGQCGSPLVSTRDGFIVGIHSASNFTNTNNYFTSVPKNFMELLTNQEAQQWVSGWRLNADSVLWGGHKVFMVKPEEPFQPVKEATQL [S18I] | 0.139 | – | – | 0.0625 | – | 0.0837 | 0.103 | 0.111 | 0.0884 | 0.0079 | 0.113 | 0.0937 | – | – | 0.0972 | 0.12 | 0.0676 | – | – |
| MGESLFKGPRDYNPISSLICHLTNESDGHTTSLYGIGFGPFIITNKHLFRRNNGTLVVQSLHGVFKVKDTTTLQQHLVDGRDMIIIRMPKDFPPFPQKLKFREPQREERICLVTTNFQTKSMSSMVSDTSCTFPSGDGIFWKHWIQTKDGQCGSPLVSTRDGFIVGIHSASNFTNTNNYFTSVPKNFMELLTNQEAQQWVSGWRLNADSVLWGGHKVFMVKPEEPFQPVKEATQL [S18L] | 0.0418 | 0.0907 | 0.0965 | 0.0853 | 0.0876 | 0.0968 | 0.16 | 0.123 | 0.107 | 0.0977 | 0.103 | 0.0831 | – | – | 0.0985 | 0.0961 | 0.0944 | 0.0927 | 0.102 |
| MGESLFKGPRDYNPISMSICHLTNESDGHTTSLYGIGFGPFIITNKHLFRRNNGTLVVQSLHGVFKVKDTTTLQQHLVDGRDMIIIRMPKDFPPFPQKLKFREPQREERICLVTTNFQTKSMSSMVSDTSCTFPSGDGIFWKHWIQTKDGQCGSPLVSTRDGFIVGIHSASNFTNTNNYFTSVPKNFMELLTNQEAQQWVSGWRLNADSVLWGGHKVFMVKPEEPFQPVKEATQL [S17M] | 0.129 | 0.0952 | 0.0477 | 0.121 | 0.0828 | 0.0949 | – | 0.146 | 0.112 | 0.109 | 0.0917 | 0.0969 | 0.117 | – | 0.125 | 0.0703 | 0.108 | 0.141 | 0.103 |
| MGESLFKGPRDYNPISNSICHLTNESDGHTTSLYGIGFGPFIITNKHLFRRNNGTLVVQSLHGVFKVKDTTTLQQHLVDGRDMIIIRMPKDFPPFPQKLKFREPQREERICLVTTNFQTKSMSSMVSDTSCTFPSGDGIFWKHWIQTKDGQCGSPLVSTRDGFIVGIHSASNFTNTNNYFTSVPKNFMELLTNQEAQQWVSGWRLNADSVLWGGHKVFMVKPEEPFQPVKEATQL [S17N] | 0.122 | 0.0974 | 0.136 | 0.113 | 0.105 | – | 0.118 | 0.135 | 0.123 | 0.0986 | 0.135 | – | 0.0948 | – | 0.132 | 0.118 | – | 0.0914 | – |
| MGESLFKGPRDYNPISSSIVHLTNESDGHTTSLYGIGFGPFIITNKHLFRRNNGTLVVQSLHGVFKVKDTTTLQQHLVDGRDMIIIRMPKDFPPFPQKLKFREPQREERICLVTTNFQTKSMSSMVSDTSCTFPSGDGIFWKHWIQTKDGQCGSPLVSTRDGFIVGIHSASNFTNTNNYFTSVPKNFMELLTNQEAQQWVSGWRLNADSVLWGGHKVFMVKPEEPFQPVKEATQL [C20V] | 0.126 | 0.102 | – | 0.126 | 0.103 | 0.108 | 0.134 | 0.147 | 0.159 | 0.16 | 0.104 | 0.104 | 0.108 | 0.118 | 0.13 | 0.123 | 0.129 | 0.116 | – |
| MGESLFKGPRDYNPISSSITHLTNESDGHTTSLYGIGFGPFIITNKHLFRRNNGTLVVQSLHGVFKVKDTTTLQQHLVDGRDMIIIRMPKDFPPFPQKLKFREPQREERICLVTTNFQTKSMSSMVSDTSCTFPSGDGIFWKHWIQTKDGQCGSPLVSTRDGFIVGIHSASNFTNTNNYFTSVPKNFMELLTNQEAQQWVSGWRLNADSVLWGGHKVFMVKPEEPFQPVKEATQL [C20T] | 0.108 | 0.0894 | 0.121 | 0.0907 | 0.0945 | 0.0779 | – | 0.079 | 0.0908 | 0.0737 | 0.101 | 0.0879 | 0.0883 | 0.106 | 0.111 | 0.0985 | 0.107 | – | 0.0777 |
| MGESLFKGPRDYNPISSSISHLTNESDGHTTSLYGIGFGPFIITNKHLFRRNNGTLVVQSLHGVFKVKDTTTLQQHLVDGRDMIIIRMPKDFPPFPQKLKFREPQREERICLVTTNFQTKSMSSMVSDTSCTFPSGDGIFWKHWIQTKDGQCGSPLVSTRDGFIVGIHSASNFTNTNNYFTSVPKNFMELLTNQEAQQWVSGWRLNADSVLWGGHKVFMVKPEEPFQPVKEATQL [C20S] | 0.0867 | 0.0847 | 0.0979 | – | 0.0777 | 0.0521 | – | 0.0936 | – | – | 0.088 | 0.0813 | – | – | 0.101 | 0.094 | 0.0885 | 0.086 | 0.0791 |
| MGESLFKGPRDYNPISSSIDHLTNESDGHTTSLYGIGFGPFIITNKHLFRRNNGTLVVQSLHGVFKVKDTTTLQQHLVDGRDMIIIRMPKDFPPFPQKLKFREPQREERICLVTTNFQTKSMSSMVSDTSCTFPSGDGIFWKHWIQTKDGQCGSPLVSTRDGFIVGIHSASNFTNTNNYFTSVPKNFMELLTNQEAQQWVSGWRLNADSVLWGGHKVFMVKPEEPFQPVKEATQL [C20D] | 0.0412 | 0.0405 | 0.0459 | 0.0444 | 0.0428 | 0.0444 | 0.0452 | 0.0425 | – | – | 0.0423 | 0.0449 | 0.0378 | 0.0401 | 0.0403 | 0.038 | – | – | – |
